Assay results published in paper PMC4336329 (PLoS ONE, 2015).
About 2,200 (0.71%) of roughly 310,000 compounds showed an effect of 50% or more. The effect is printed as a negative number. This is one part of the list.

Each compound was assayed against human ether-à-go-go-related gene (hERG) potassium channel (human, UniProt Q12809) (assay: primary screen, population patch clamp on CHO cells stably expressing hERG).
Chain of human ether-à-go-go-related gene (hERG) potassium channel (Q12809 whole entry, looked up): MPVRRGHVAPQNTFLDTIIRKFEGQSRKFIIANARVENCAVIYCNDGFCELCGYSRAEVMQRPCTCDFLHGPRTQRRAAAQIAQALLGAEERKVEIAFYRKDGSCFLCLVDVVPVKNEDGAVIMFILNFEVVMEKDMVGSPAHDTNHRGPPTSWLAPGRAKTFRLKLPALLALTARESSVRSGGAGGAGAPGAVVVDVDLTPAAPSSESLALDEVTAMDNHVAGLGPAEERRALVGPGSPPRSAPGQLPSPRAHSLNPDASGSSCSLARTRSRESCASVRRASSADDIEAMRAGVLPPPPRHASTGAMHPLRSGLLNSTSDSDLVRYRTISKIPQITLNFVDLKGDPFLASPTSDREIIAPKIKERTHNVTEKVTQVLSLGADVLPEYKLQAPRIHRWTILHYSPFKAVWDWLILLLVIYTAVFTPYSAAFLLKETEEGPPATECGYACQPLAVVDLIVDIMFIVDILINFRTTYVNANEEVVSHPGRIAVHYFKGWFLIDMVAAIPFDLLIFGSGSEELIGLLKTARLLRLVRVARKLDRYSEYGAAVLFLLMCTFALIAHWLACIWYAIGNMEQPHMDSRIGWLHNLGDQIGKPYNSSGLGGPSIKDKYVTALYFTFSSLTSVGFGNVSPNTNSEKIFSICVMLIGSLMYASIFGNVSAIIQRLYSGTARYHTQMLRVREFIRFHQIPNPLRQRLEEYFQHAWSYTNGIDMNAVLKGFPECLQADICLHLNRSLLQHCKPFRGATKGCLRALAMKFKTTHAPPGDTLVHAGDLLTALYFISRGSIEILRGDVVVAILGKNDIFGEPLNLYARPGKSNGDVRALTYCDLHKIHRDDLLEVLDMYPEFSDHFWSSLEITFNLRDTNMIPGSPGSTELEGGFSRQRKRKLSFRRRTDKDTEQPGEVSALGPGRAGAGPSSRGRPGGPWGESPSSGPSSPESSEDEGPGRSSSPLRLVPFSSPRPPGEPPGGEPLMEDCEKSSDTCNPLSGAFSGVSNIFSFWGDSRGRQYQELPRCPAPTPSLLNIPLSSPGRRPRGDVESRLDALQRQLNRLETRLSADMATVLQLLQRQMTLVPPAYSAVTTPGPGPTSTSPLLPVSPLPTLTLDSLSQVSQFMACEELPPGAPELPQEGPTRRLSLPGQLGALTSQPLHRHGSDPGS

| SMILES | hERG current change (%, negative = inhibition) at 1uM |
| --- | --- |
| Cc1sc2ncn(CC(=O)NCC3COc4ccccc4O3)c(=O)c2c1S(=O)(=O)N1CCCCC1 (centres unmarked) | 9.92% |
| Cc1cccc(NC2=NCC(=O)N2CCc2ccccc2)c1 | -5.54% |
| O=C(O)/C=C/C(=O)N(Cc1ccc2c(c1)OCO2)C1CC(=O)N(CCc2ccccc2)C1=O (centres unmarked) | 14.6% |
| COc1ccc(CC(=O)NNC(=O)CSc2nnc(Cc3ccc(OC)cc3)n2-c2ccccc2)cc1 | 1.61% |
| CCOC(=O)c1c(C)[nH]c(C(=O)OCC(=O)Nc2ccc(OCC)cc2)c1C | -1.52% |
| CCN(CC)c1ccc(N=Nc2ncn[nH]2)cc1 | 9.65% |
| CCc1ccc(NC(=O)C2CCCCC2C(=O)O)cc1 (centres unmarked) | 11.5% |
| COc1cccc(-c2nnc(SCC(=O)NC3CCS(=O)(=O)C3)n2C)c1 (centres unmarked) | 2.08% |
| c1coc(-c2ccnc(-n3cccc3)n2)c1 | 10.1% |
| Cc1nnc(SCC2=C(C(=O)O)N3C(=O)C(NC(=O)c4cc(F)c(F)cc4Cl)C3SC2)s1 (centres unmarked) | -2.66% |
| COC(=O)[C@]1(C)N[C@H](c2ccc(-c3ccccc3)cc2)[C@@H]2C(=O)N(C)C(=O)[C@@H]21.O=C(O)C(F)(F)F | 15.8% |
| O=C(CC1(O)C(=O)N(CN2CCOCC2)c2ccccc21)c1ccccc1 (centres unmarked) | -38.6% |
| CCOc1ccc(S(=O)(=O)NCc2ccc3c(c2)OCO3)cc1C(=O)O | 11.1% |
| CCN(CC)S(=O)(=O)c1ccc(C(=O)Nc2c3c(nn2C(C)(C)C)CS(=O)(=O)C3)cc1 | 5.04% |
| O=C(/C=C/c1ccco1)NCC1COc2ccccc2O1 (centres unmarked) | 10.4% |
| COc1ccc(NC(=O)[C@H](C)NC(=O)C2CCN(S(=O)(=O)c3ccc(OC)cc3)CC2)cc1 | 9.33% |
| CCCCNC(=O)c1ccccc1NC(=O)CCSc1ccccc1 | 6.03% |
| Cc1oc(-c2cccc(C(F)(F)F)c2)nc1CN1CCN(c2ccccn2)CC1 | 6.15% |
| CC1(c2ccccc2)NC(=O)N(CC(=O)Nc2ccc(S(=O)(=O)Nc3ncccn3)cc2)C1=O (centres unmarked) | 14.2% |
| CCN1C(=O)[C@H]2[C@@H](c3ccc(OC)cc3)N3C(=O)CN(CCOC)C(=O)[C@@]3(Cc3ccccc3)[C@H]2C1=O | 0.249% |
| Cc1ccc(C2NC(C(=O)O)CS2)cc1 (centres unmarked) | 9.28% |
| Cc1ccc(-c2noc(CN3CCOCC3)n2)cc1 | 17.1% |
| O=C(Nc1nnc(SCc2ccccc2)s1)C1=COCCO1 | -4.07% |
| COc1cc(OC)c2ccc(=O)oc2c1C(CCN1CCCCC1)c1ccc(N(C)C)cc1 (centres unmarked) | 10.1% |
| CCc1ccccc1NC(=O)c1ccc2nc(N3CCOCC3)sc2c1 | 2.16% |
| Cc1oc(-c2ccc3c(c2)OCCO3)cc1C(=O)NC(CCC(=O)O)C(=O)O (centres unmarked) | 9.12% |
| COc1ccccc1C(=O)Nc1ccc(S(=O)(=O)N2CCc3ccccc32)cc1 | -36.9% |

| SMILES | hERG current change (%, negative = inhibition) at 1uM |
| --- | --- |
| O=C1CN(C(=O)C2CCC(=O)N(CCc3ccc(Cl)cc3)C2)CCN1 (centres unmarked) | 15.3% |
| CC1=CC2=NC(=O)/C(=C/c3coc4ccc(Cl)cc4c3=O)C(=N)N2O1 | 12.7% |
| Cc1ccccc1N1CCN(CCN2C(=O)CC(=C3c4ccccc4-c4ccccc43)C2=O)CC1 | 9.78% |
| COc1ccc(N(C(=O)c2cnccn2)C(C(=O)NC2CCCCC2)c2ccccc2)cc1 (centres unmarked) | 5.65% |
| O=C(COc1ccc2c3c(c(=O)oc2c1)CCC3)NC1CCN(Cc2ccccc2)CC1 | -3.5% |
| CC(=O)Nc1cc2cc(NS(=O)(=O)c3ccc(C)cc3)ccc2oc1=O | 13.8% |
| O=C(CSc1ccc(-c2ccccc2)nn1)N1CCOCC1 | -10.3% |
| C/C(=N\NC(=O)CNc1cccc(Cl)c1C)C1CC1 | 19.7% |
| N#Cc1ccc(C(=O)Nc2cc(S(=O)(=O)N3CCCC3)ccc2OCC(F)(F)F)cc1 | -2.09% |
| Cc1c(N=Nc2c(O)n(-c3ccc(Br)cc3)c(=O)[nH]c2=O)c(=O)n(-c2ccccc2)n1C | 13.8% |
| Nc1ccc(C(=O)N2CCN(S(=O)(=O)c3ccc(Cl)s3)CC2)cc1[N+](=O)[O-] | 4.82% |
| O=C(NC1CCCCCC1)c1ccc(CN2CCOCC2)cc1 | 16.5% |
| CCCNC(=O)NC(=O)COc1c(F)c(F)cc(F)c1F | -3.36% |
| O=C(CCN1C(=O)C2C3C=CC(C3)C2C1=O)NCCN1CCCc2ccccc21 (centres unmarked) | -4.28% |
| O=C(CCCCCNC(=O)c1ccccc1Cl)N/N=C/c1ccco1 | 14.8% |
| Cc1ccc(S(=O)(=O)NCC(c2ccco2)N2CCOCC2)cc1 (centres unmarked) | 0.699% |
| Cc1onc(-c2c(Cl)cccc2Cl)c1C(=O)n1nnc2ccccc21 | 7.22% |
| COc1ccc(OC)c(NC(=O)CN(C)S(=O)(=O)c2ccc(Cl)cc2)c1 | 6.95% |
| CCOc1ccc(C2C(C#N)=C(N)N(c3sc4c(c3C#N)CCCC4)C3=C2C(=O)CCC3)cc1 (centres unmarked) | 3.62% |
| NC(=O)c1ccccc1N/C=C1\CCCCC1=O | 10.8% |
| COCc1c(C(=O)OCC(=O)c2c(N)n(CC(C)C)c(=O)n(C)c2=O)oc2ccccc12 | 5.53% |
| CSc1ccc(S(=O)(=O)NCC(=O)OCC(=O)N2CCCCC2C)cc1[N+](=O)[O-] (centres unmarked) | 18.9% |
| Cc1ccc(S(=O)(=O)NCCC(=O)Nc2ccncc2)cc1C | -3.57% |
| CCN(CC)S(=O)(=O)c1cccc(NC(=O)COc2ccc(C#N)cc2OC)c1 | -6.54% |
| Cc1ccc2nc(SCC(=O)c3c[nH]c4ccccc34)[nH]c2c1 | 24% |
| COc1cccc(C(=O)OC2CCCN(C)C2)c1.Cl (centres unmarked) | -0.829% |
